Reference: US20140357512A1, “HISTONE DEACETYLASE (HDAC) BIOMARKERS IN MULTIPLE MYELOMA” (priority 2013, published 2014)

Test system: human myeloma cell line MM.1S
Test: SILAC acetylated-lysine peptide profiling, HDAC inhibitor vs DMSO (light/heavy ratio)
Assay type: cell-based
Text: An embodiment of the invention comprises utilizing the SILAC method in order to quantitate changes in protein expression between two or more populations of cells. The SILAC method is a technique based on mass spectrometry that detects differences in protein abundance among samples using non-radioactive isotopic labeling. The SILAC method is known in the art, and described in detail in Ong et al., “Stable Isotope Labeling by Amino Acids in Cell Culture, SILAC, as a Simple and Accurate Approach to Expression Proteomics”, Molecular & Cellular Proteomics, vol. 1, pp. 376-386 (2002), which is incorporated herein by reference in its entirety.
Briefly, the SILAC method involves growing two populations of cells in cell culture. The first population of cells is grown in growth media containing normal amino acids (“normal media”). The second population of cells is grown in media lacking a standard essential amino acid (such as lysine), but is then supplemented with a non-radioactive, isotopically labeled form of that essential amino acid (such as lysine labeled with ^13C atoms, rather than normal ^12C atoms), which is called “heavy media”. When the two populations of cells are each growing in the medium, they incorporate the amino acids into all of their proteins. The growth of cells maintained in the heavy media is no different from that in normal media. All peptides containing the heavy amino acids are heavier than their normal counterparts. The cells from each of the two populations of cells are lysed. The lysates from each of the two cell populations are then combined. The combined cell lysates are then analyzed by mass spectrometry. Pairs of chemically identical peptides of different stable isotope composition can be differentiated in a mass spectrometer due to their difference in mass. The ratio of peak intensities in the mass spectrum for such peptide pairs reflects the abundance ratio for the two proteins.
This example describes SILAC studies that were performed to compare the effects of three different HDAC inhibitors (Compound A, Compound B, and tubastatin A) to a control on a human multiple myeloma cell line. The HDAC inhibitors were also compared amongst themselves to determine differences in their effects.
A human myeloma cell line MM.1S was grown using either ^12C (light) or ^13C (heavy) lysine containing culture medium. The “heavy” cells were treated with DMSO as the control, and the “light” cells were treated with a single HDAC inhibitor at 37° C. for 6 hours. The heavy and light cells were lysed, and the lysates were mixed in 1:1 ratio and digested with the protease trypsin. The acetylated lysine containing peptides (due to the action of the HDAC inhibitor) in the digested peptide pool were captured by a non-specific anti-acetylated lysine antibody cocktail (the antibodies identify both light and heavy acetylated peptides), and subjected to mass spectrometry analysis in order to identify thousands of individual peptides.
Thousands of peptides were identified in pairs (^12C and ^13C) due to their known mass differences. The amino acid sequence and quantitative ratio (Light/Heavy) of a given peptide in two differentially treated cell lysates were then determined and annotated with their possible protein (gene) sources.
As stated above, three HDAC inhibitors (Compound A, Compound B, and Tubastatin A) were used. Thus, the SILAC method was performed three times, with a different HDAC inhibitor compared to a control each time. Accordingly, there are three pairs of quantitative data in the table below, i.e., Compound A:DMSO, Compound B:DMSO, and Tubastatin A:DMSO. A cut-off of 1.30 fold of change (increase or decrease) was then used to determine “changed” or “+” in the table, and any peptides with a fold of change less than 1.3 fold were determined to be “unchanged” or “0” in the table. Those peptides that were not identified were marked as “NA” in the table. […]

## CN1CCc2c(c3ccccc3n2Cc2ccc(C(=O)NO)cc2)C1 [Tub A]
Protein disulfide-isomerase [375], P4HB, drug:DMSO
  light to heavy ratio (L/H ratio) of acetylated peptide VLVGK(ac)NFEDVAFDEK (SEQ ID NO: 303): −0.41 log 2
Protein disulfide-isomerase [385], P4HB, drug:DMSO
  light to heavy ratio (L/H ratio) of acetylated peptide NFEDVAFDEK(ac)K (SEQ ID NO: 286): −0.41 log 2
Putative annexin A2-like protein [302], ANXA2P2, drug:DMSO
  light to heavy ratio (L/H ratio) of acetylated peptide SEVDMLK(ac)IR (SEQ ID NO: 295): 0.41 log 2
Pyruvate dehydrogenase E1 component subunit alpha testis-specific form mitochondrial [75], PDHA2, drug:DMSO
  light to heavy ratio (L/H ratio) of acetylated peptide RMELK(ac)ADQLYK (SEQ ID NO: 275): 0.53 log 2
QGFNVVVESGAGEASK(ac)FSDDHYR (SEQ ID NO: 190), NAD(P) transhydrogenase mitochondrial [100], NNT
  light to heavy ratio (L/H ratio) of acetylated peptide, log 2 scale: 0.48
RAC2 [153], log 2 scale, drug vs DMSO
  L/H ratio of acetylated peptide EIDSVK(ac)[…] (SEQ ID NO: 73): −0.48
RBBP4 [4], log 2 scale, drug vs DMSO
  L/H ratio of acetylated peptide (ac)ADK(ac)EAAFDDAVEER (SEQ ID NO: 74): 0.71
RBM17 [391], log 2 scale, drug vs DMSO
  L/H ratio of acetylated peptide ACFYNLDK(ac)FR (SEQ ID NO: 75): −0.42
RCC1 [366], log 2 scale, drug vs DMSO
  L/H ratio of acetylated peptide LGLGEGAEEK(ac)SIPTLISR (SEQ ID NO: 76): −0.45
RPAVK(ac)QFHDSK (SEQ ID NO: 203), 60S ribosomal protein L18a [143], RPL18A
  light to heavy ratio (L/H ratio) of acetylated peptide, log 2 scale: −0.54
RPL3L [373], log 2 scale, drug vs DMSO
  L/H ratio of acetylated peptide FIDTTSK(ac)FGHGR (SEQ ID NO: 83): −0.45
RPL4 [239], log 2 scale, drug vs DMSO
  L/H ratio of acetylated peptide LNILK(ac)LAPGGHVGR (SEQ ID NO: 85): −0.48
RPL4 [274], log 2 scale, drug vs DMSO
  L/H ratio of acetylated peptide AASLK(ac)SNYNLPMHK (SEQ ID NO: 84): −0.57
RPL9 [121], log 2 scale, drug vs DMSO
  L/H ratio of acetylated peptide NFLGEK(ac)YIR (SEQ ID NO: 86): −0.44
RPL11 [154], log 2 scale, drug vs DMSO
  L/H ratio of acetylated peptide TGCIGAK(ac)HR (SEQ ID NO: 77): −0.47
RPL11 [169], log 2 scale, drug vs DMSO
  L/H ratio of acetylated peptide WFQQK(ac)YDGIILPGK (SEQ ID NO: 78): −0.64
RPL18A [41], log 2 scale, drug vs DMSO
  L/H ratio of acetylated peptide IFAPNHVVAK(ac)SR (SEQ ID NO: 79): −0.51
RPL21, SNORD102, SNORA27, RPL21P19 [97], log 2 scale, drug vs DMSO
  L/H ratio of acetylated peptide IEHIK(ac)HSK (SEQ ID NO: 80): −0.44
RPL22 [84], log 2 scale, drug vs DMSO
  L/H ratio of acetylated peptide YLK(ac)YLTK (SEQ ID NO: 81): −0.38
RPL27A [47], log 2 scale, drug vs DMSO
  L/H ratio of acetylated peptide INFDK(ac)YHPGYFGK (SEQ ID NO: 82): −0.52
RPS4X [53], log 2 scale, drug vs DMSO
  L/H ratio of acetylated peptide LK(ac)YALTGDEVKK (SEQ ID NO: 89): −0.38
RPS7 [74], log 2 scale, drug vs DMSO
  L/H ratio of acetylated peptide SFQK(ac)IQVR (SEQ ID NO: 90): −0.51
RPS9 [66], log 2 scale, drug vs DMSO
  L/H ratio of acetylated peptide ELLTLDEK(ac)DPR (SEQ ID NO: 91): −0.52
RPS9 [116], log 2 scale, drug vs DMSO
  L/H ratio of acetylated peptide LQTQVFK(ac)LGLAK (SEQ ID NO: 92): −0.51
RPS23 [135], log 2 scale, drug vs DMSO
  L/H ratio of acetylated peptide VANVSLLALYK(ac)GK (SEQ ID NO: 87): −0.46
RPS27A [104], log 2 scale, drug vs DMSO
  L/H ratio of acetylated peptide LAVLK(ac)YYK (SEQ ID NO: 88): −0.52
RcPSMB3 (Fragment) [15], log 2 scale, drug vs DMSO
  L/H ratio of acetylated peptide (ac)SIMSYNGGAIMAMK(ac)GK (SEQ ID NO: 124): 1.00
SARNP 17], log 2 scale, drug vs DMSO
  L/H ratio of acetylated peptide LAELK(ac)QECLAR (SEQ ID NO: 94): −0.73
SARNP [10], log 2 scale, drug vs DMSO
  L/H ratio of acetylated peptide (ac)ATETVELHK(ac)LK (SEQ ID NO: 93): −0.85
SCAEWVSLSK(ac)AR (SEQ ID NO: 135), Isoform 1 of ATP synthase subunit d mitochondrial [109], ATP5H
  light to heavy ratio (L/H ratio) of acetylated peptide, log 2 scale: 0.75
SCP2 [438], log 2 scale, drug vs DMSO
  L/H ratio of acetylated peptide ANLVFK(ac)EIEK (SEQ ID NO: 95): −0.49
SEC11C [147], log 2 scale, drug vs DMSO
  L/H ratio of acetylated peptide EGQNWLEK(ac)K (SEQ ID NO: 96): 0.48
